Assay results reported in the supplement of paper PMC10338343.
± gives the standard deviation. The entries are a selection whose mix differs from that of the whole data set.

Tested on: MIWI (PIWIL1) piRISC loaded with L1MC piRNA (30 nt)
Assay: pre-steady-state target cleavage rate (min^-1); MIWI and MILI are mouse PIWI proteins and EfPiwi is from a freshwater sponge; tags in brackets are library labels; higher = faster piRNA-guided slicing of the target
Conditions: guide: L1MC piRNA 5'p-UAACUAAAUACUAUGCAAGCUGUAGGUCCU; auxiliary factor: 500 nM mouse GTSF1
Outline: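 For Cleave-'n-Seq, a transcribed, DNA-blocked target RNA library […] met 1 nM active affinity-purified piRISC with one synthetic guide at 33 °C for 0–8 or 0–960 min in HEPES–potassium acetate buffer, with or without 500 nM GTSF1 partner protein. Uncleaved targets were sequenced and normalised to depth and weakly complementary targets, with three trials pooled and k3 capped at 0.0001 min^-1. A burst-and-steady-state fit supplied the pre-steady-state cleavage rate.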
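Further: 1 nM active piRISC with 0.1 nM target library at 33 °C single turnover.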

Sequence | pre-steady-state target cleavage rate
UCCUGCAACAGCUUGCAUACUAUUUAGUUA | 0.425 ± 0.022
UCCUGGAUGAGCUUGCAUAGAAUUUAGUUA | 0.204 ± 0.02
UCCUGGAACAGCUUGCAUUGUAUUUACAAA | 0.0806 ± 0.023
AGGACCUACAGCUUGCAUAGUAUUAACAAA | 0.409 ± 0.061
UCGACCUACAGCUUGCAUAGUAUUAAGUAA | 0.408 ± 0.031
UCGUCCUACAGCUUGCAUAGUAUUUUCAAA | 0.386 ± 0.043
UCCACCUACAGCUUGCAAAGUAUUUAGUAA | 0.453 ± 0.052
UCGACCUACAGCAUCCAUAGUAUUUAGUUA | 0.137 ± 0.028
UCCUGGAACAGCUUGCAUAGUAUUUACGUUA | 0.57 ± 0.038
UCCUCCAACAGCUUGCUUAGUAUUUAGUUA | 1.28 ± 0.054
UCCACGUACAGCUUGCAUAGUAUUUUGUUA | 0.594 ± 0.033
UCCUGCUACAGUCUUGCAUAGUAUUUAGUUA | 0.643 ± 0.033
UCCUGCUACUGCUUGCAUUGUAUUUAGUUA | 0.68 ± 0.048
UCCACCUACAGCUUGCAUAGUAUUAACUUA | 0.22 ± 0.035
UCCUGGAACAGCUUGCUUACUAUUUAGUUA | 0.362 ± 0.025
AGCUGCUACAGCUUGCAUAGUAUUUAGAAA | 0.32 ± 0.068
AGGACCUACAGCUUGUCAUAGUAUUUAGUUA | 0.747 ± 0.074
UGGUGCUACAGCUUGCAUAGUAUUUAGAAA | 0.171 ± 0.029
UCCACCUACAGCAUGCAUAGUAAUUAGUUA | 0.597 ± 0.05
UCCUGGAACAGCUUGCACAGUAUUUAGUUA | 1.01 ± 0.035

Sequence | pre-steady-state target cleavage rate
UCCUGCUACAGCAUGCAUAGUUUUUAGUUA | 0.512 ± 0.043
UCGACACUACAGCUUGCAUAGUAUUUAGUUA | 0.961 ± 0.061
UCCUGGAACAGCUUCCUUAGUAUUUAGUUA | 0.267 ± 0.021
AGGACGUACAGCAUGCAUAGUAUUUAGUUA | 1.21 ± 0.048
UCCACCUACAGCUUGCAUAGAAAUUAGUUA | 0.204 ± 0.026
UCCUGGAACAGCUUGCAUAGUAUAUAGAUA | 0.169 ± 0.024
UCGACCUACACCUUGCAAAGUAUUUAGUUA | 1.05 ± 0.037
UCCUGGAUGAGCUUGCAUAGUAUUUACUAA | 0.0842 ± 0.024
UCCUGGAUCAGCAUGCAUAGUAUUAAGUUA | 0.449 ± 0.034
UCCUCCUACAGCUUCCAUUGUAUUUAGUUA | 0.136 ± 0.018
AGGACCUACAGCUUGCAUAGUAUUUGGUUA | 0.794 ± 0.045
UCCUGGAACUGGUUGCAUAGUAUUUAGUUA | 0.517 ± 0.032
UCGACCUACAGCUGGCAUAGUAUUUAGUUA | 1.31 ± 0.049
UCCUGGAUGAGCUUGCAUUGUAUUUUGUUA | 0.149 ± 0.016
AGGACCUACAGCUUGCAUAGUAUUUAGAAA | 0.597 ± 0.066
AGGAGCUACAGCUUGCAUAGUUUUUAGUUA | 0.407 ± 0.023
UGGACCUACAGCUUGCAUUGUAUAUAGUUA | 0.52 ± 0.033
AGGACCUACAGCUUGCAUACUAAUUAGUUA | 0.288 ± 0.03
UCCUGCUACACCUUGGAUAGUAUUUAGUUA | 0.292 ± 0.051
UCCUGGAACAGCUUGCAUAGUAUUAGUUA | 0.0655 ± 0.01

Same assay, conditions: guide: L1MC piRNA 5'p-UAACUAAAUACUAUGCAAGCUGUAGGUCCU; auxiliary factor: none (no GTSF1)

Sequence | pre-steady-state target cleavage rate
UCCUGCAACAGCUUGCAUACUAUUUAGUUA | 0.0344 ± 0.0091
UCCUGGAUGAGCUUGCAUAGAAUUUAGUUA | 0.0171 ± 0.0057
UCCUGGAACAGCUUGCAUUGUAUUUACAAA | 0.00315 ± 0.0021
AGGACCUACAGCUUGCAUAGUAUUAACAAA | 0.00389 ± 0.0032
UCGACCUACAGCUUGCAUAGUAUUAAGUAA | 0.0114 ± 0.0048
UCGUCCUACAGCUUGCAUAGUAUUUUCAAA | 0.00313 ± 0.0025
UCCACCUACAGCUUGCAAAGUAUUUAGUAA | 0.0135 ± 0.0033
UCGACCUACAGCAUCCAUAGUAUUUAGUUA | 0.00199 ± 0.0019
UCCUGGAACAGCUUGCAUAGUAUUUACGUUA | 0.0419 ± 0.0079
UCCUCCAACAGCUUGCUUAGUAUUUAGUUA | 0.0363 ± 0.0081
UCCACGUACAGCUUGCAUAGUAUUUUGUUA | 0.0354 ± 0.0053
UCCUGCUACAGUCUUGCAUAGUAUUUAGUUA | 0.0274 ± 0.005
UCCUGCUACUGCUUGCAUUGUAUUUAGUUA | 0.0235 ± 0.0049
UCCACCUACAGCUUGCAUAGUAUUAACUUA | 0.00734 ± 0.0026
UCCUGGAACAGCUUGCUUACUAUUUAGUUA | 0.0121 ± 0.004
AGCUGCUACAGCUUGCAUAGUAUUUAGAAA | 0.00309 ± 0.0028
AGGACCUACAGCUUGUCAUAGUAUUUAGUUA | 0.00894 ± 0.0041
UGGUGCUACAGCUUGCAUAGUAUUUAGAAA | 0.00502 ± 0.0025
UCCACCUACAGCAUGCAUAGUAAUUAGUUA | 0.00874 ± 0.0024
UCCUGGAACAGCUUGCACAGUAUUUAGUUA | 0.0853 ± 0.018

Sequence | pre-steady-state target cleavage rate
UCCUGCUACAGCAUGCAUAGUUUUUAGUUA | 0.0156 ± 0.0037
UCGACACUACAGCUUGCAUAGUAUUUAGUUA | 0.0557 ± 0.0088
UCCUGGAACAGCUUCCUUAGUAUUUAGUUA | 0.00323 ± 0.0025
AGGACGUACAGCAUGCAUAGUAUUUAGUUA | 0.045 ± 0.0076
UCCACCUACAGCUUGCAUAGAAAUUAGUUA | 0.00272 ± 0.0024
UCCUGGAACAGCUUGCAUAGUAUAUAGAUA | 0.00459 ± 0.0033
UCGACCUACACCUUGCAAAGUAUUUAGUUA | 0.0403 ± 0.0079
UCCUGGAUGAGCUUGCAUAGUAUUUACUAA | 0.00516 ± 0.0024
UCCUGGAUCAGCAUGCAUAGUAUUAAGUUA | 0.00727 ± 0.0026
UCCUCCUACAGCUUCCAUUGUAUUUAGUUA | 0.00218 ± 0.0021
AGGACCUACAGCUUGCAUAGUAUUUGGUUA | 0.0742 ± 0.014
UCCUGGAACUGGUUGCAUAGUAUUUAGUUA | 0.00705 ± 0.0025
UCGACCUACAGCUGGCAUAGUAUUUAGUUA | 0.0512 ± 0.011
UCCUGGAUGAGCUUGCAUUGUAUUUUGUUA | 0.0127 ± 0.0043
AGGACCUACAGCUUGCAUAGUAUUUAGAAA | 0.0225 ± 0.0082
AGGAGCUACAGCUUGCAUAGUUUUUAGUUA | 0.0391 ± 0.0094
UGGACCUACAGCUUGCAUUGUAUAUAGUUA | 0.0151 ± 0.0056
AGGACCUACAGCUUGCAUACUAAUUAGUUA | 0.0117 ± 0.0027
UCCUGCUACACCUUGGAUAGUAUUUAGUUA | 0.0186 ± 0.0031
UCCUGGAACAGCUUGCAUAGUAUUAGUUA | 0.00281 ± 0.0023
